Reference: PubChem BioAssay AID485344 (National Center for Advancing Translational Sciences (NCATS), 2010)
Screen size: about 340,000 compounds; about 6,900 (2%) were called active. No stated cut-off is given here; in the data, active means inhibition above about 30%; inactive means below that, where a call was filed. This is a selection; strong and weak results do not stand in their true shares. Entries without a call were filed so in the source.

target: D(2) dopamine receptor (Homo sapiens) (UniProt P14416); assay: HTS Assay for Allosteric Antagonists of the Human D2 Dopamine Receptor: Primary Screen for Antagonists; details: HEK293 TREx D2 cells, calcium flux, dopamine EC80; at 10 µM; stronger effect = higher value; further: 0% is about no effect
Outline: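 HEK293 T-REx D2 cells, tet-induced, calcium dye no-wash. Cpd pintool add, 180 s kinetic, then EC80 DA, 180 s kinetic. Ca flux read.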

Chain of UniProt P14416 (P14416 whole entry, looked up): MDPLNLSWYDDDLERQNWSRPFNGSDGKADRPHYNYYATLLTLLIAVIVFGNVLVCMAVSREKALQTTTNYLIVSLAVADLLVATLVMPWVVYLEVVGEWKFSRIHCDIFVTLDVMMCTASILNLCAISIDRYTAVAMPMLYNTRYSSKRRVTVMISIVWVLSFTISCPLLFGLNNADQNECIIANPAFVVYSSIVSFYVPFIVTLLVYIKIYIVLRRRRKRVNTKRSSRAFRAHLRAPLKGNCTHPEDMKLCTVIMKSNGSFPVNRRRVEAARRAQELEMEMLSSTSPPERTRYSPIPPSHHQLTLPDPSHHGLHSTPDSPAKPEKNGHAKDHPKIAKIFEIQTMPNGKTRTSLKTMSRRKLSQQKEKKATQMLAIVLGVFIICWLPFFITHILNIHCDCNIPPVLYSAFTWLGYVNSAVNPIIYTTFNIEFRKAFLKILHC

Structure (SMILES)	inhibition
O=C(NCCc1ccccc1)c1cnc2sc(N3CCOCC3)nn2c1=O	-2.59%
CCCSCCCNC(=O)CN1C(=O)COc2ccc(S(=O)(=O)N3CCCCCC3)cc21	-3.34%
Cc1cc(NC(=O)CN(c2cccc(C)c2C)S(=O)(=O)c2ccccc2)ccc1Br	16.2%
O=C(Nc1ccc(F)cc1F)C1CCCN1S(=O)(=O)c1cccc2nsnc12 (stereo not drawn)	6.8%
CCOC1(OCC)C(c2ccc(Cl)cc2)C(C#N)(C#N)C1(OCC)OCC (stereo not drawn)	active: 38.5%
CCCOc1ccc(CNC(=O)C2CCN(c3nn4c(=O)cc(C)nc4s3)CC2)cc1	5.79%
Cc1cccc(C(=O)Nc2cccc(C(=O)OCc3cc(=O)n4nc(C5CC5)sc4n3)c2)c1	18.5%
N#Cc1ccccc1NC(=O)C(=O)NCC(c1cccnc1)N1CCN(c2ccccc2)CC1 (stereo not drawn)	-1.72%
CCOc1ccc(C(=O)Nc2ccc3nc(SCC(=O)N4CCOCC4)sc3c2)cc1	-14.5%
Cc1ccc(OCC(=O)Nc2ccc(-c3nc4ccc(C)cc4o3)cc2)cc1	10.5%
CCOc1ccc(-c2nonc2NC(=O)c2oc3cc(Br)ccc3c2C)cc1	13%
COc1cc2c(c(O)c1OC)C(=O)C(OC)CCC2 (stereo not drawn)	active: 32%
Cc1cc(C)nc(N2CCCC(C(=O)Nc3nnc(C(C)(C)C)s3)C2)n1 (stereo not drawn)	active: 47.9%
CC(NC(=O)c1cc2sccc2n1Cc1ccc(F)cc1)c1ccccc1 (stereo not drawn)	-6.5%
COc1ccc(C(=O)Nc2ccc(-c3cc(C(F)(F)F)nn3-c3ccccc3)cc2)cc1OC	-21.1%
CCc1cccc(C)c1NS(=O)(=O)c1ccc(-n2cccn2)cc1	-2.07%
Cc1ccc(CC(=O)NCc2cccnc2)cc1	active: 67.4%
CC(=O)N1CCCc2cc(S(=O)(=O)NCc3ccc(OC(C)C)cc3)ccc21	-7.6%
C=CCNC(=O)CC(=O)N/N=C/c1ccc(C(=O)OC)cc1	active: 33.4%
Cc1nn2c(=O)cc(COC(=O)COc3ccc(F)cc3)nc2s1	14.2%
COc1cc2ccccc2cc1C(=O)Nc1cccc(-c2nc3cc(C)ccc3o2)c1C	-2.84%
Cc1cc(C)cc(NC(=O)Cn2c(=O)n(Cc3ccco3)c(=O)c3oc4ccccc4c32)c1	3.92%
Cc1cccc(NC(=O)C2CCCN(S(=O)(=O)c3ccc(Br)s3)C2)c1 (stereo not drawn)	8.26%
Cc1nc2cccnc2n1-c1cccc(C(=O)NCCc2ccc(S(N)(=O)=O)cc2)c1	-6.09%
Cc1ccc(C2=NC(c3ccccc3)=Nc3ccc(Cl)cc3N2)cc1	11.9%

Structure (SMILES)	inhibition
COC(=O)c1cc2oc3ccccc3c2n1Cc1c(C)cc(C)cc1C	21.6%
Cc1cc(C)c2c(=O)cc(C(=O)NCc3ccc(S(N)(=O)=O)cc3)oc2c1	-3.64%
Oc1ccc2ccccc2c1CNn1cnnc1	active: 32.6%
COCCCNC(=O)CSc1nc(-c2ccc(OC)c(OC)c2)[nH]c1-c1ccc(F)cc1	-24%
CCc1ccc(NC(=O)CCc2nnc3n(C)c(=O)c4sccc4n23)cc1	26.7%
COc1ccccc1OCCC(=O)OCC(=O)Nc1ccc(Br)cc1F	active: 41.1%
COc1ccc(CNC(=O)c2ccc3nc(C(C)C)oc3c2)cc1OC	0.0841%
Cc1ccc(NC(=O)CN2C(=O)COc3ccc(S(=O)(=O)Nc4ccccc4)cc32)c(C)c1	3.51%
Cc1cc(C)c(NC(=O)CSc2nc3ccncc3[nH]2)c(C)c1	-2.71%
Cc1ccc(NC(=O)CSc2nnc(-c3ccc(Br)cc3)o2)c(C)c1	14.7%
Cc1ccc(OCC(=O)Nc2ccc3nc(SCCOc4ccccc4)sc3c2)cc1	-12.2%
CCOC(=O)Cn1c(=O)oc2cc(S(=O)(=O)N3CCC(C(=O)OCC)CC3)ccc21	2.09%
COc1ccc(NC(=O)Cn2nnc3sc4c(c3c2=O)CCCC4)cc1	-1.41%
COCCn1c(SCC(=O)c2c[nH]c3ccccc23)nc2cc(C(=O)NC(C)C)ccc2c1=O	8.07%
COCCCNC(=O)c1ccc(C)c(-n2c(C)nc3cccnc32)c1	-3.73%
Cc1nc2ccn(Cc3cccnc3)c(=O)c2cc1C(=O)Nc1ccc(F)cc1F	-0.398%
O=S(=O)(Nc1ccc(F)cc1F)c1ccc(-n2cccn2)cc1	0.976%
CCOc1ccc(-c2nnc(SCC(=O)c3ccc(Br)cc3)n2-c2ccccc2)cc1	-2.45%
O=C(CN1C(=O)CCc2cc(S(=O)(=O)N3CCOCC3)ccc21)NCc1ccc(Cl)cc1	-5.85%
O=C(Nc1cccc(C(F)(F)F)c1)c1ccc2snnc2c1	15.2%
CC(=O)c1ccc(NC(=O)Cn2c(=O)nc(-c3ccccc3)c3cc(Cl)ccc32)cc1	-14.7%
CCc1ccc(NC(=O)Nc2nnc(N(C)C3CCCCC3)s2)cc1	10.6%
CCC(C)NC(=O)CSc1nc2cc3c(cc2c(=O)n1Cc1ccc(C(=O)NCCc2ccc(OC)c(OC)c2)cc1)OCO3 (stereo not drawn)	-18.6%
Cc1cccc(N2CCN(C(=O)C3CCN(c4ncnc5c4nc4n5CCCCC4)CC3)CC2)c1C	13.8%
CCOC(=O)C1CCCN(c2ncnc3c2nnn3C)C1 (stereo not drawn)	-4.22%

Structure (SMILES)	inhibition
COc1cccc(NC(=O)c2oc3ccccc3c2NC(=O)c2cc3ccccc3o2)c1	5.41%
Cc1cccc(C(=O)Nc2ccc(S(=O)(=O)N(Cc3ccccc3)c3ccccc3)cc2)c1	5.98%
COc1cc(NC(=O)NCCN2CCN(c3ccccc3)CC2)cc(OC)c1OC	active: 76%
COc1ccc(C(=O)NCCn2cc(SC(C)c3ccccc3)c3ccccc32)cc1OC (stereo not drawn)	9.88%
CCN(CC)c1ccc2cc(-c3nc(-c4ccccc4F)no3)c(=O)oc2c1	-7.48%
Cc1cc(C)c(S(=O)(=O)Nc2ccc(-c3ccc(N4CCCCCC4)nn3)cc2)cc1C	12.1%
Cn1c(N)c(C(=O)NCc2ccccc2Cl)sc1=S	active: 52.9%
Cc1ccc(C(=O)Nc2ccc(S(=O)(=O)Nc3onc(C)c3C)cc2)cc1	5.52%
CCOC(=O)c1ccc(NC(=O)Cn2c(=O)cc(C(F)(F)F)c3c(C)nn(C)c32)cc1	5.45%
Fc1ccc(CSc2nc(NCc3ccccc3)c3ccccc3n2)cc1	5.89%
COc1ccc(-c2cc(C(=O)Nc3cccc(O)c3)on2)cc1OC	7.94%
CC(C)(Oc1ccc(Cl)cc1)C(=O)NC1CCN(Cc2ccccc2)CC1	active: 71.8%
COc1ccc(CNC(=O)Cn2c(=O)cc(C)c3c(C)nn(-c4cccc(Cl)c4C)c32)cc1	-7.11%
COc1cc(NC(=O)CNS(=O)(=O)c2cccs2)cc(OC)c1OC	10.7%
O=C(NCc1cccs1)c1ccc(CSc2nc3ccncc3n2Cc2ccccc2)cc1	0.111%
CC1CCC(NC(=O)c2ccc(CS(=O)(=O)c3cccc(C(F)(F)F)c3)o2)CC1 (stereo not drawn)	-25%
Cc1ccc(C)c(Cn2c(=O)n(Cc3ccccc3)c(=O)c3c2c2cc(C)ccc2n3C)c1	-4.37%
CCOc1ccc(S(=O)(=O)NCCc2csc3nc(-c4ccc(F)cc4)nn23)cc1	-8.38%
COc1cccc(C2=NS(=O)(=O)N(C)C(C(=O)Nc3ccccc3SC)=C2)c1	-0.2%
COc1ccc(CC(=O)Nc2ccc(S(=O)(=O)NCC3CCCO3)cc2)cc1 (stereo not drawn)	active: 31.8%
CCOc1cc(-c2ccc(OC(=O)c3ccc(C)cc3)c(OC)c2)cc(=O)c2c(C)oc(C)c12	-20.2%
Nc1c(-c2nc(-c3ccccc3)no2)nnn1CC(=O)Nc1cccc(F)c1	-2.45%
CC(=O)c1ccc(NC(=O)CN(C)S(=O)(=O)c2cc3c(cc2Cl)NC(=O)CO3)cc1	11.2%
CCCN(CCC)S(=O)(=O)c1ccc(C(=O)Nc2cccc(-c3nc4ccccc4[nH]3)c2)cc1	5.15%
CSCc1ccc(C(=O)Nc2cc(C)cc(C)c2)cc1	active: 30.3%

Structure (SMILES)	inhibition
CCOC(=O)c1ccc(Nc2c(-c3cccc(O)c3)nc3nc[nH]n23)cc1	19.8%
N#Cc1c(-n2ncnc2-c2ccccc2C(F)(F)F)sc2c1CCCCC2	12.8%
Cc1ccc(NCc2cccn2-c2nnc(N3CCC(C(=O)NCCC(C)C)CC3)s2)cc1	-0.602%
Cc1cccc(CSCc2ccc(C(=O)NCCc3ccccc3)o2)c1	24.6%
COc1ccccc1CCNC(=O)Cc1c(C)c2cc3c(C)coc3cc2oc1=O	-13.5%
Cc1cc(C)c2c(CC(=O)Nc3ccc(S(=O)(=O)N4CCCCC4)cc3)coc2c1	-5.09%
O=C(c1cc2ccccc2oc1=O)N1CCN(c2ccc(F)cc2)CC1	5.7%
COc1cccc(-c2nn(C)c3sc(C(=O)NCc4ccco4)cc23)c1	active: 36.2%
Cc1ccc(CNC(=O)c2c(C)oc3nc(C)nc(N4CCOCC4)c23)cc1	1.14%
CC(=O)C1=C(C)NC2=C(C(=O)CC(C)(C)C2)C1C (stereo not drawn)	active: 34%
CCc1ccc(-n2nc3cc(C)c(NC(=O)c4cc(OC)cc(OC)c4)cc3n2)cc1	-8.71%
c1ccc(Cn2c[n+](Cc3ccccc3)cn2)cc1	active: 43.1%
CC(C)(C)c1ccc(C(=O)NCC(c2cccs2)S(=O)(=O)c2cccs2)cc1 (stereo not drawn)	-9.17%
N#Cc1ccsc1NC(=O)CN1CCN(c2ccccn2)CC1	active: 30.8%
Cc1cccc(C)c1NC(=O)Cn1c(=O)n(Cc2ccc3c(c2)OCO3)c(=O)c2oc3ccccc3c21	-0.325%
CCOc1cc(C(=O)Nc2ccc(-c3nc4ccccc4s3)cc2Cl)cc(OCC)c1OCC	20.2%
CCOc1ccc(OCC)c(NC(=O)C(NS(=O)(=O)c2cccs2)c2ccccc2)c1 (stereo not drawn)	17.8%
COc1ccc(C(=O)Nc2cc(S(=O)(=O)c3ccc(Cl)cc3)c(O)c(C)c2C)cc1	4.18%
O=C(Nc1ccc(Br)cc1)C(Cc1ccccc1)NS(=O)(=O)c1cccc2nsnc12 (stereo not drawn)	-7.61%
O=C(Cc1ccc(F)cc1)NCCS(=O)(=O)N1CCN(c2ccccc2)CC1	active: 46%
Cc1nn(CCCC(=O)NCc2ccccc2)c(=O)c2cc3sccc3n12	-0.237%
CC(C)(C)OC(=O)N1CCC(c2c(C(=O)NCc3ccco3)cnn2-c2ccccc2Cl)CC1	6.02%
COC(=O)c1ccccc1NS(=O)(=O)c1ccc2c(c1)CCCN2C(C)=O	0.127%
